# Source: PMC11995724, “Antibiotic target discovery by integrated phenotypic and activity-based profiling of electrophilic fragments” (Cell chemical biology, 2025)
# Out of some 3,200 compounds screened, about 75 (2%) showed an effect of 50% or more. Some of the results follow.
# System: T1, S. aureus MSSA476
# T1 construct: MSSA476
# Design: species or system S. aureus MSSA476 (TSB) or V. cholerae SAD30 (LB); 384-well bacterial growth screen at 25 uM, OD600 relative to DMSO control
# Conditions: relative growth, OD600, TSB; 25 µM; inhibitor
row,Compound,% of control remaining [%]
1,"CC(Cl)C(=O)NC(=O)NCc1cccs1 (stereo not shown) [6-E05, 3-(2-chloropropanoyl)-1-[(thiophen-2-yl)methyl]urea]",104.488
2,"O=C(CCl)NC(c1cc(F)ccc1F)C(F)F (stereo not shown) [7-F22, 2-chloro-N-[1-(2,5-difluorophenyl)-2,2-difluoroethyl]acetamide]",96.3893
3,"O=C(CCl)NCC1CCN(C(=O)Cc2ccccc2)C1 (stereo not shown) [7-B08, 2-chloro-N-{[1-(2-phenylacetyl)pyrrolidin-3-yl]methyl}acetamide]",91.6797
4,"Cc1ccccc1CC(C)NC(=O)CCl (stereo not shown) [6-C06, 2-chloro-N-[1-(2-methylphenyl)propan-2-yl]acetamide]",88.0976
5,"C=CC(=O)N1CC(C)OC2(CCOCC2)C1 (stereo not shown) [3-I12, 1-{2-methyl-1,9-dioxa-4-azaspiro[5.5]undecan-4-yl}prop-2-en-1-one]",105.529
6,"C=CC(=O)N1CCC(C(=O)N2CCCCCC2c2ccco2)CC1 (stereo not shown) [2-N20, 1-{4-[2-(furan-2-yl)azepane-1-carbonyl]piperidin-1-yl}prop-2-en-1-one]",102.35
7,"O=C(CCl)NCC1CN(Cc2ccccc2)CCO1 (stereo not shown) [4-H18, N-[(4-benzylmorpholin-2-yl)methyl]-2-chloroacetamide]",112.816
8,"CC(C)NC(=O)C(C#N)=Cc1ccc(Cl)cc1 [9-C09, 3-(4-chlorophenyl)-2-cyano-N-(propan-2-yl)prop-2-enamide]",87.7903
9,"C=CC(=O)Nc1cc(C(C)(C)C)nn1-c1ncccn1 [1-E04, N-[3-tert-butyl-1-(pyrimidin-2-yl)-1H-pyrazol-5-yl]prop-2-enamide]",115.341
10,"N#CC(=Cc1ccc(F)c(F)c1)C(=O)NC1CC1 [9-M06, 2-cyano-N-cyclopropyl-3-(3,4-difluorophenyl)prop-2-enamide]",129.139
11,"Cc1nc(C)n(C2CCCN(C(=O)C(C)Cl)C2)n1 (stereo not shown) [7-P13, 2-chloro-1-[3-(3,5-dimethyl-1H-1,2,4-triazol-1-yl)piperidin-1-yl]propan-1-one]",97.0173
12,"CCNC(=O)C(C#N)=Cc1c(N2CCOCC2)nc2ccccn2c1=O [9-O06, 2-cyano-N-ethyl-3-[2-(morpholin-4-yl)-4-oxo-4H-pyrido[1,2-a]pyrimidin-3-yl]prop-2-enamide]",97.0787
13,"Cn1c(N)c(C(=O)CCl)c(=O)n(C)c1=O [10-E14, 6-amino-5-(2-chloroacetyl)-1,3-dimethyl-1,2,3,4-tetrahydropyrimidine-2,4-dione]",101.875
14,"CCC1SC(=C(C#N)C(=O)NC)N(c2ccc(Cl)cc2)C1=O (stereo not shown) [8-L15, 2-[3-(4-chlorophenyl)-5-ethyl-4-oxo-1,3-thiazolidin-2-ylidene]-2-cyano-N-methylacetamide]",125.477
15,"CC(Cl)C(=O)NC(=O)NC12CC3CC(CC(C3)C1)C2 (stereo not shown) [6-D10, 1-(adamantan-1-yl)-3-(2-chloropropanoyl)urea]",94.9268
16,"O=C(CCl)N(CC1=CCSC1)c1ccccc1 [4-F11, 2-chloro-N-[(2,5-dihydrothiophen-3-yl)methyl]-N-phenylacetamide]",111.672
17,"Cc1ccoc1C=C(C#N)C(=O)NCCc1ccccc1 [9-N03, 2-cyano-3-(3-methylfuran-2-yl)-N-(2-phenylethyl)prop-2-enamide]",109.663
18,"C=CC(=O)NC1CN(C(C)=O)C1 [1-N22, N-(1-acetylazetidin-3-yl)prop-2-enamide]",127.297
19,"C=CC(=O)NCCc1nnc(C)s1 [3-G22, N-[2-(5-methyl-1,3,4-thiadiazol-2-yl)ethyl]prop-2-enamide]",111.45
20,"C=CC(=O)NCc1cn(C2CCC2)nn1 [3-D09, N-[(1-cyclobutyl-1H-1,2,3-triazol-4-yl)methyl]prop-2-enamide]",106.226
21,"C=CC(=O)Nc1ccc2c(c1)S(=O)(=O)CC2 [3-O15, N-(1,1-dioxo-2,3-dihydro-1lambda6-benzothiophen-6-yl)prop-2-enamide]",91.5977
22,"C=CC(=O)NCC(c1c(F)cccc1F)N1CC(C)OC(C)C1 (stereo not shown) [1-I13, N-[2-(2,6-difluorophenyl)-2-(2,6-dimethylmorpholin-4-yl)ethyl]prop-2-enamide]",98.1099
23,"O=C(CCl)N1N=C(c2cccs2)CC1c1cccc(O)c1 (stereo not shown) [6-L04, 2-chloro-1-[5-(3-hydroxyphenyl)-3-(thiophen-2-yl)-4,5-dihydro-1H-pyrazol-1-yl]ethan-1-one]",3.7561

row,Compound,% of control remaining [%]
1,"CC(Cl)C(=O)N(C)CC(=O)Nc1ccccc1C(F)(F)F (stereo not shown) [4-N05, 2-chloro-N-methyl-N-({[2-(trifluoromethyl)phenyl]carbamoyl}methyl)propanamide]",100.619
2,"Cn1cc(CN(C(=O)CCl)c2ccc(F)cc2)cn1 [6-D08, 2-chloro-N-(4-fluorophenyl)-N-[(1-methyl-1H-pyrazol-4-yl)methyl]acetamide]",94.2439
3,"O=C(CCl)N1CCOc2c1cccc2C(F)(F)F [5-G08, 2-chloro-1-[8-(trifluoromethyl)-3,4-dihydro-2H-1,4-benzoxazin-4-yl]ethan-1-one]",0.3643
4,"CCN(CC)S(=O)(=O)c1ccc(NC(=O)CCl)cc1 [4-K07, 2-chloro-N-[4-(diethylsulfamoyl)phenyl]acetamide]",110.91
5,"C=CC(=O)N1CCC(C(=O)NCc2ccoc2C)CC1 [1-E14, N-[(2-methylfuran-3-yl)methyl]-1-(prop-2-enoyl)piperidine-4-carboxamide]",98.4615
6,"O=C(CCl)N1N=C(c2ccsc2)CC1c1cccc(F)c1 (stereo not shown) [4-C22, 2-chloro-1-[5-(3-fluorophenyl)-3-(thiophen-3-yl)-4,5-dihydro-1H-pyrazol-1-yl]ethan-1-one]",168.08
7,"O=C(CCl)NCc1cc(O)ccc1Cl [7-J21, 2-chloro-N-[(2-chloro-5-hydroxyphenyl)methyl]acetamide]",95.1334
8,"Cc1ccc(C)c(NC(=O)CN(C)C(=O)CCl)c1 [6-N04, 2-chloro-N-{[(2,5-dimethylphenyl)carbamoyl]methyl}-N-methylacetamide]",106.537
9,"COc1ccc(CNC(=O)C(C)Cl)cc1 (stereo not shown) [5-J18, 2-chloro-N-[(4-methoxyphenyl)methyl]propanamide]",118.761
10,"C=CC(=O)NCCn1cc(Cl)c(C(F)(F)F)n1 [2-F03, N-{2-[4-chloro-3-(trifluoromethyl)-1H-pyrazol-1-yl]ethyl}prop-2-enamide]",110.357
11,"C=CCNC(=O)C(C#N)=CC=Cc1ccccc1 [9-J08, 2-cyano-5-phenyl-N-(prop-2-en-1-yl)penta-2,4-dienamide]",82.6966
12,"CCN(CC)S(=O)(=O)c1cccc(NC(=O)CCl)c1 [4-M07, 2-chloro-N-[3-(diethylsulfamoyl)phenyl]acetamide]",110.529
13,"C=CC(=O)N1CCC(n2cc(C(N)=O)nn2)C1 (stereo not shown) [1-C18, 1-[1-(prop-2-enoyl)pyrrolidin-3-yl]-1H-1,2,3-triazole-4-carboxamide]",111.824
14,"COc1ccc(N(C)C(=O)C(C)Cl)cc1Cl (stereo not shown) [7-C14, 2-chloro-N-(3-chloro-4-methoxyphenyl)-N-methylpropanamide]",104.553
15,"CC(Cl)C(=O)Nc1ccccc1C(N)=O (stereo not shown) [5-G05, 2-(2-chloropropanamido)benzamide]",93.9891
16,"C=CC(=O)NCCC(=O)N1CCCC1c1cc(C)on1 (stereo not shown) [2-C12, N-{3-[2-(5-methyl-1,2-oxazol-3-yl)pyrrolidin-1-yl]-3-oxopropyl}prop-2-enamide]",150.044
17,"C=CC(=O)N1CCC(n2ccc(C)n2)CC1 [2-A21, 1-[4-(3-methyl-1H-pyrazol-1-yl)piperidin-1-yl]prop-2-en-1-one]",154.917
18,"C=CC(=O)NCc1conc1C1CCC1 [1-N06, N-[(3-cyclobutyl-1,2-oxazol-4-yl)methyl]prop-2-enamide]",124.132
19,"Cc1ccc(-n2c(C)cc(C(=O)CCl)c2C)cc1C [10-B14, 2-chloro-1-[1-(3,4-dimethylphenyl)-2,5-dimethyl-1H-pyrrol-3-yl]ethan-1-one]",1.25
20,"C=CC(=O)NCc1ncccc1S(C)(=O)=O [2-D21, N-[(3-methanesulfonylpyridin-2-yl)methyl]prop-2-enamide]",107.92
21,"O=C(CCl)Nc1cc(C(=O)O)cc(C(=O)O)c1 [4-B04, 5-(2-chloroacetamido)benzene-1,3-dicarboxylic acid]",99.8571
22,"CC(Cl)C(=O)N(C)Cc1cn(C)nc1C(F)(F)F (stereo not shown) [7-M04, 2-chloro-N-methyl-N-{[1-methyl-3-(trifluoromethyl)-1H-pyrazol-4-yl]methyl}propanamide]",97.0173
23,"CC(Cl)C(=O)NCc1ccco1 (stereo not shown) [5-B09, 2-chloro-N-[(furan-2-yl)methyl]propanamide]",118.761
